The chains are these.
T1: UNK ZnF1-3 (human, UniProt Q9C0B0 31-174)
T1 sequence: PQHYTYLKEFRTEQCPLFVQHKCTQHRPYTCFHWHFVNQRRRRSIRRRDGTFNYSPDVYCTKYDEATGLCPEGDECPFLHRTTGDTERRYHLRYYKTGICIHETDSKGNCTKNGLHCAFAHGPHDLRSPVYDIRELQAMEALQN

B1: chr15:80430306:80430307:+_ENSG00000086666_ENST00000558494|hu_hu|FALSE|FALSE (ssRNA)
RNA: GGGAGUUCUACAGUCCGACGAUCAUUAUCAAAAGAGAAAUCGUGCUGCAGAGAAAAGCGAUAUAUACAUACACAAUGAGAAAAUAAACUGCAAGAUUAAUGCAUGCAUGUUUAAUACUGGAAAAAUCACAGCCCUCCAAAAUUCAACAGAGGAUUGAGCAUCA
B2: chr2:128501614:128501615:-_ENSMUSG00000014355_ENSMUST00000014499|mus_mus|motif|central (ssRNA)
RNA: GGGAGUUCUACAGUCCGACGAUCAGCCACAGGGGAUUCGCCUUUGGAGAGGCUUCUGAGAUGUGCUGUCAGGGAGCUGCGGGUAGUUGCAUUCUGCAGGGUCCCUGCCUGCUCAGGGAACUUUAAAACAGCAUUCUCUUCCUCCAACAGAGGAUUGAGCAUCA
B3: chr16:94664741:94664742:+_ENSMUSG00000040785_ENSMUST00000117648|mus_hu|mus_mus_mus_hu_False|38_38 (ssRNA)
RNA: GGGAGUUCUACAGUCCGACGAUCUGGUACUGAUCUUGGUAGCUGAUAUUCAGGAGAAAGGCUGGCCAAGGGUGUAUAUAUGCUGGUGUACUGGGGCAGGCUAGGUAACACGUUUAUGUAUGCUGGCGGUGUCUGGGUGAUAUCCAACAGAGGAUUGAGCAUCA
B4: 53105790_53113655_364_3pUTR_ENSMUSG00000020361_ENSMUST00000020630|mouse|control|control (ssRNA)
RNA: GGGAGUUCUACAGUCCGACGAUCUCUUAGGACCAAAAGAAACACAUGCCGGCGUGCAGCGGUCGCUAUACUCGUUAGCGAUCGUCUCGAUGCCGCCGGCGCGGGCCACAGCGACAUAGCAGCUCUGAAAGCCCAGGUCUAUGCCAACAGAGGAUUGAGCAUCA
B5: chr1:43830971:43830972:-_ENSG00000066322_ENST00000372458|hu_hu|FALSE|FALSE (ssRNA)
RNA: GGGAGUUCUACAGUCCGACGAUCACGGAGCUGGAAGGGCUUCCGAUUAGCCAUGAUGCGAGGCCCAAGUGAGAGAACGAAGUACACGUAGGUCAGGAGAAUGGAGGUCAUUAGCAAGGGGGACCCCAUCAGAGGGUAGCCCUGCAACAGAGGAUUGAGCAUCA
B6: chr10:69676056:69676057:+_ENSG00000096717_ENST00000212015|hu_hu|FALSE|FALSE (ssRNA)
RNA: GGGAGUUCUACAGUCCGACGAUCAUGGAAAAUGUAACGAUUUGGUGGCAAAAACAGAUACUGAUUACCAUCAAGCCGCCUACUAAUCUGCUCCUUUGCCACUCUAUUAGGCCAGCAUUUUCUCACUGUUCCAGCCACUGAAGUCAACAGAGGAUUGAGCAUCA
B7: chr2:198351390:198351391:-_ENSG00000144381_ENST00000345042|hu_hu|hu_hu_hu_mus_False|38_38 (ssRNA)
RNA: GGGAGUUCUACAGUCCGACGAUCUCAUUCCCACCCUCCACAGAAAGGCUGCUUCUGAACUCUCAUGUGGUGACACAGCGCUACAGUCCUGAUGCUCACAGAAUAGUAGAGAUGCCUCAGUGAUUUAAGUUGAAAGCAGGACACCAACAGAGGAUUGAGCAUCA
B8: chr9:124914678:124914679:-_ENSG00000119421_ENST00000373768|hu_hu|FALSE|FALSE (ssRNA)
RNA: GGGAGUUCUACAGUCCGACGAUCGGGCUUAUCACAUUGAGCUCCAUAGUGAUGGGCCGCAGCUUUAAGCACAGCAGAACUAAUUUUCACCUCAUCUACUUUCAGCUCCUCUAGAGUGGGCAGCUCCACUAUCCCCGGCAUGACCAACAGAGGAUUGAGCAUCA
B9: chr8:117878989:117878990:-_ENSG00000164754_ENST00000297338|hu_mus|motif|central (ssRNA)
RNA: GGGAGUUCUACAGUCCGACGAUCCCAGAGGCCCUCGUUUACUGAGGACAAAAUGUGCGUAGAACAUUUUUCUUAUUUGCGGUGAAAUAAGAAGAAACCUGGAUCUCGGCGGGGAGCCGGGAGGGGUGGGUGGCCCGGGGAGGGCAACAGAGGAUUGAGCAUCA
B10: chr6:114281168:114281169:-_ENSG00000196591_ENST00000368632|hu_hu|hu_hu_hu_mus_True|68_88 (ssRNA)
RNA: GGGAGUUCUACAGUCCGACGAUCUUCCAUUUUUCGGUAUAAACCAUAAUUUAACAGCAAGUUAUGAGUCAUGCGGAUUCUAUGAGGCUUCAUGGGAUGACCCUGGCCAUAAUAAUAAUUGCCAAUAUCACCAUCAUAGUAGUACAACAGAGGAUUGAGCAUCA
B11: chr11:29999759:29999760:-_ENSMUSG00000020315_ENSMUST00000011877|mus_hu|motif|central (ssRNA)
RNA: GGGAGUUCUACAGUCCGACGAUCUACACUUACCAAUGAUUUAAAGGGUUUAUUAUACAUCUAGUUUUAUUAUACUUUGUACGGGAAUUAUCUCAAACGUACAAUAUAAUGUAUUUCAGCAAAAAAAAAAAAUUGAAAUUACAGCAACAGAGGAUUGAGCAUCA
B12: chr12:56508462:56508463:+_ENSMUSG00000021024_ENSMUST00000021412|mus_hu|FALSE|FALSE (ssRNA)
RNA: GGGAGUUCUACAGUCCGACGAUCACAGUCUUUCCCUCUGACAGCUACUGAUGUAAGGCCACCCUGGUUAAUAGCCUUAAAAGCAUAUUCUACUUGGUAGAGCCGACCCUCGGGUGAAAAAAUGGUAAUGUGGCGGUCAAAACCCAACAGAGGAUUGAGCAUCA
B13: chr1:182797045:182797046:+_ENSMUSG00000038806_ENSMUST00000038091|mus_mus|FALSE|FALSE (ssRNA)
RNA: GGGAGUUCUACAGUCCGACGAUCACACAAGGCAUGUAGGAGAGGAAAUACAAUUCAAAUGCCAAUGAGAUCAACAACUGAGAAAAAUCCACAAAGACAAAAAACUGAUUCUUUGAAAACCAAACAAAAUAGGUCCCUAGCUAGCAACAGAGGAUUGAGCAUCA
B14: 179959696_179961256_653_3pUTR_ENSG00000135837_ENST00000367607|human|control|control (ssRNA)
RNA: GGGAGUUCUACAGUCCGACGAUCGUGAUUUAGUGGAUUUGGAGAUUGGAGCAUUAACCCAAGAAUCAUCCAGGUAUCUACCAUCUUUUCUACUUAUUUUUCGAGUAGCACUUGUAGAAGACUUCUUGGUAUCCAUGACAGAAUCAACAGAGGAUUGAGCAUCA

This is one part of the list.

The target in this experiment is T1, UNK ZnF1-3. Put plainly: nsRBNS (natural sequence RNA bind-n-seq); RBNS binding buffer (assumed for nsRBNS): 25 mM Tris pH 7.5, 150 mM KCl, 3 mM MgCl2, 0.01% Triton X-100, 500 ug/ml BSA, 20 U/ml SUPERase-In, 4 C; UNK is unkempt and MSI1 is Musashi-1; names of the RNAs are library labels; protein concentration not given here; high values mean tight binding.
Consider B1, for which the binding signal came to 1.04 enrichment R.

Molecule B2 gave a binding signal of 1.41 enrichment R.

As for B3, the binding signal worked out at 1.2 enrichment R.

For the molecule B4, the binding signal came to 0.496 enrichment R.

The molecule B5 registered a binding signal of 1.68 enrichment R.

In the case of B6, the binding signal is 0.598 enrichment R.

B7 came in with a binding signal of 1.51 enrichment R.

For B8, the binding signal is 0.869 enrichment R.

As to B9, the binding signal came out at 1.48 enrichment R.

B10: the binding signal was 1.08 enrichment R.

B11 gave a binding signal of 1.77 enrichment R.

In turn, B12 came in with a binding signal of 1.17 enrichment R.

B13 had a binding signal of 1.65 enrichment R.

Consider B14, for which the binding signal was found to be 0.916 enrichment R.

Source of the values: PMC12136788.
